Measurements: patent US20130171174A1 (INDUSTRIAL TECHNOLOGY RESEARCH INSTITUTE, published 2013)

Biological target: T1, human epidermal growth factor receptor (EGFR) on A431 cells (human, UniProt P00533)
T1 construct: whole, on cells; The target is presented on fixed A431 cells
Assay: ELISA on fixed A431 cells, anti-human Fc-HRP detection, SigmaPlot fit
Experimental: A431 cells in a concentration of 4×10⁵ cell/ml were seeded in Corning CellBIND 96-well plate for 16-24 h before assay. After PBS wash, the A431 cells were fixed with BD CytoFix fixation buffer for 15-20 min at room temperature. After fixation and PBS wash procedure, the A431 cells were blocked with StartingBlock blocking buffer for 30 min at 37° C. Plates were washed three times with PBST wash buffer and incubated with the indicated concentrations of dAb-D2-hFc and VH-dAb-D2×4-Ig in 50 ul StartingBlock blocking buffer on ice for 1.5 h. Wells were washed three times with PBST wash buffer. After washing, the plate was incubated with HRP-conjugated anti-human Fc antibody diluted 1:10,000 in StartingBlock blocking buffer on ice for 1 hour. Plates were washed and incubated with TMB. Absorbance at 450 nm was read on a microplate reader.

- Kd: ~52 nM
B1: dAb-D2-hFc fusion protein (Fc fusion)
chain: MAQVQLLESGGGLVQPGGSLRLSCAASGYRFNSEAMGWVRQAPGKGLEWVSSINMRGGSTYYADSVKGRFTISRDNSKNTLYLQMNSLRAEDTAVYYCATVPRSMWWAGLTAKPIRYWGQGTLVTVSS[in this place human IgG1 Fc with C220G (EU numbers)]
notes: Dimeric, bivalent form made in CHO cells and purified on protein A, about 80 kDa; No linker between dAb-D2 and Fc is described; also called recombinant dAb-D2-hFc; bivalent antibody
